# Laboratory results taken from the RNAGym collection of RNA variant scans (doi:10.7554/elife.90254).
# Read counts are not given, so values of variants with three or more changes are uncertain.
# B1: LINE1-mini (parent)
# chain: GGCAGAGCUCAACACAGCGUGGCAAAGUGGCUGUGGCUAGACUGCC
# Variants of: B1
# Assay: self-cleavage, relative activity (ratio to wild type); higher = more cleavage; in vitro, sequencing; the parent is a self-cleaving ribozyme
row,Variant,self-cleavage
1,A4C G5U C18G G21A G30A C42U,0.21
2,A4C G5U G27C,0.07
3,A4C G5U G40A,0.1
4,A4C G7A C10A,0.04
5,A4C G7A C18G,0.2
6,A4C G7A G27C,1.01
7,A4C G7A G36C,0.35
8,A4C G7A U34C C37G A39U,0.53
9,A4C G7C A26G,0.19
10,A4C G7C C8G G17C G29A,0.44
11,A4C G7U C8A C15G C18G C46G,0.03
12,A4C G7U U20A,1.04
13,A4C G7U U20C G44U,0.08
14,A4C G17A G22U G29A,0.17
15,A4C G17A U20G G30C,0.02
16,A4C G17C A25U G44A,0.07
17,A4C G17C G21U C23A G35U,0.11
18,A4C G17U C37U,0.05
19,A4C G17U G22U A26U U38C G40U U43A,0.09
20,A4C G19A A25U,0.03
21,A4C G19A C31A G36C U43A G44A C46U,0.02
22,A4C G19A C46U,0.37
23,A4C G19A U28G,0.03
24,A4C G19C C37U,0.02

row,Variant,self-cleavage
1,A4C G19C G40U,0.04
2,A4C G19C U20G,0.05
3,A4C G19C U38G U43C,0
4,A4C G19U A24C G33C,0.03
5,A4C G19U G21C C46A,0.08
6,A4C G19U U28A C37A,0.06
7,A4C G21A C37U,0.2
8,A4C G21A G35U C42A G44C,0.04
9,A4C G21C A24U C46U,0.06
10,A4C G21U A26U G44U,0.16
11,A4C G21U G40U,0.12
12,A4C G22A C23U G30U G33C,0.11
13,A4C G22A U28A,0.03
14,A4C G22C G27U C45U,0.07
15,A4C G22C G27U G33U C42U C45A,0.15
16,A4C G22C U38G,0.01
17,A4C G22U C46A,0.37
18,A4C G22U G27A A41G,0.01
19,A4C G22U U43A,0.03
20,A4C G27A C42G,0.09
21,A4C G27C G33A,0.05
22,A4C G29A C31A G36C C42U,0.04
23,A4C G29U G36C,1.53
24,A4C G29U G36U,0.81

row,Variant,self-cleavage
1,A4C G29U U34C A39C A41G,0.5
2,A4C G30C C31A G35U G40A,0.23
3,A4C G30U C46G,0.04
4,A4C G33U G44A,0.04
5,A4C G33U U43C,0.06
6,A4C G35C U43C,0.35
7,A4C U9A G17C C45A,0.06
8,A4C U9A U32C C46A,0.08
9,A4C U9C C10A C37A,0.09
10,A4C U9C C13A C37G,0.03
11,A4C U9C G22U C23A C31U,0.05
12,A4C U20A C31U,0.01
13,A4C U20A C42U U43G,0.01
14,A4C U20A G27C U34G,0.02
15,A4C U20G U32C U38C,0
16,A4C U28A C45U C46U,0.12
17,A4C U28A U34A,0.06
18,A4C U28G C42A,0.13
19,A4C U34C G44A,0.13
20,A4C U34G C37U,0.02
21,A4G A6C C37U A41U,0.12
22,A4G A6G A12G G30C G33A A41C,0.01
23,A4G A6G C8A U20A U34G G36C C45G,0.11
24,A4G A6G C8G A12C C13A G29U U38A,0.01

row,Variant,self-cleavage
1,A4G A6G C31U G40A,0.04
2,A4G A6G G30U,0.08
3,A4G A6G G33C A41U,0.03
4,A4G A6G U9G C37A U43G,0.06
5,A4G A6U A24U A25U G35A A39G,0.07
6,A4G A6U A41U,0.05
7,A4G A6U C8G U20C G21A,0.03
8,A4G A6U G17C G29A C45G C46U,0.03
9,A4G A6U G19A,0.14
10,A4G A6U G21A,0.1
11,A4G A6U G22C,1.12
12,A4G A6U G29A,2.49
13,A4G A6U G35A G36U,0.24
14,A4G A11C C31U,0.03
15,A4G A11C C37U,0.01
16,A4G A11G A14G,0.01
17,A4G A11G G17A,0.03
18,A4G A11G G27A G29C U34A U38A,0
19,A4G A11U C18A C23G A24U,0.02
20,A4G A11U G21A G36U,0
21,A4G A12C A14C G21U G22A U34C,0.06
22,A4G A12C C18U G35A C46A,0.12
23,A4G A12C C42G,0.01
24,A4G A12G C37G,0.09

row,Variant,self-cleavage
1,A4G A12G G21U,0.01
2,A4G A12G G22A,0.02
3,A4G A12U A14U A41G,0.09
4,A4G A12U C45U,0.04
5,A4G A12U C46U,0.11
6,A4G A14C A25U G29C,0.01
7,A4G A14C G19A C42G G44C,0.02
8,A4G A14G C18A G27A G30U U34A,0.06
9,A4G A14G G29U C45G,0.13
10,A4G A14U A26G U38G,0.06
11,A4G A14U G19C U20A,0.02
12,A4G A14U U32C U43A,0.28
13,A4G A16C C31A,0.03
14,A4G A16C C45U,0.02
15,A4G A16C G17A G21U G33A C37G U43A C46U,0.01
16,A4G A16G A39G,0.03
17,A4G A16G G19C G21A A25C G33C A41C G44A,0
18,A4G A16U G19U U20G C37A,0.03
19,A4G A24G A25G,0.16
20,A4G A24G G29A C46A,0.12
21,A4G A24G G33A,0.08
22,A4G A24G U28A,0.19
23,A4G A26C U28G,0.59
24,A4G A26G G27C G44C,0.01

row,Variant,self-cleavage
1,A4G A26G G27U C31U G36U C46G,0.02
2,A4G A26G U38C,0.08
3,A4G A26U G33A,0.1
4,A4G A26U U28A A41C,0.02
5,A4G C8A A16C C23A,0.75
6,A4G C8A A26G C37U,0.52
7,A4G C8A C18A G19U A26U C31A G44U,0.36
8,A4G C8A C23U C45A,0.92
9,A4G C8A C42G,0.2
10,A4G C8A G22C G36A C37A C46A,0.17
11,A4G C8G C13A C15A G19U G33A,0.03
12,A4G C8G U28A,0
13,A4G C8U A11C C15G G35A A41C,0.01
14,A4G C8U A26G G35U,0.45
15,A4G C8U C10A C15U A24U G33A,0.02
16,A4G C8U C13U G33U C42A C45G,0.32
17,A4G C8U C31A,0.22
18,A4G C8U G17C G21A U32G,0.04
19,A4G C8U G22A G30U C31G,0.15
20,A4G C8U G29U,0.09
21,A4G C10A A16C G44U,0.01
22,A4G C10A A41G,0
23,A4G C10A C13A C42U,0.02
24,A4G C10A C18G G19A A25G G27A,0.02

row,Variant,self-cleavage
1,A4G C10A C42A G44C,0.01
2,A4G C10A G17C G19A A41C,0.03
3,A4G C10A G22U,0.12
4,A4G C10A G30A,0.05
5,A4G C10A G30U,0.02
6,A4G C10U A11U G29A,0.05
7,A4G C10U A26U,0.23
8,A4G C10U U20G,0.28
9,A4G C13A A26G,0.03
10,A4G C13A G22C,0.05
11,A4G C13A G40U U43A,0.01
12,A4G C13A U43G,0
13,A4G C13G A14G,0.06
14,A4G C13U A24C C31U,0.02
15,A4G C15A A16U U28C G33C,0.04
16,A4G C15G A25C G27U,0.02
17,A4G C15G C23U,0.08
18,A4G C15G G17A A24U U38G,0.02
19,A4G C15G G19U G36A,0.02
20,A4G C15G G21C,0.01
21,A4G C15G G30U,0.02
22,A4G C15G U20C,0.1
23,A4G C18A C42A C46G,0.01
